Test results published in PubChem BioAssay AID463173 (ICCB-Longwood Screening Facility, Harvard Medical School, 2010).
The campaign covered roughly 52,000 compounds. About 4,300 (8.3%) were called active. Cut-off read from the data, not from the text of the source: active = survival mostly below about 52% (no sharp cut-off); inactive = mostly above about 56%. The list shows a part of the results.

What follows are compounds tested on DeltatarO mutant (assay: S. aureus survival, RN4220 and DeltatarO strains – OD600, teichoic acid synthesis inhibitors, primary screen (AID 463173)). Conditions: S. aureus RN4220 wild type/DeltatarO growth, OD600, 18 h, hits give low values, screened at 18.75 µg/mL (by protocol).

Structure (SMILES) | survival
CCOc1ccc(CNC(=O)c2ccc3nc(CC)c(CC)nc3c2)cc1OC | inactive: 80%
CCc1ccc(S(=O)(=O)c2c(C(=O)c3ccc(C)c(C)c3)cnc3ccccc23)cc1 | inactive: 90%
Cn1cnc(S(=O)(=O)N2CCCC(C(=O)Nc3cccc(C#N)c3)C2)c1 (stereo not drawn) | inactive: 124%
COc1ccc(NC(=O)N(Cc2nnc3n2CCCCC3)c2ccc(OC)c(Cl)c2)cc1 | inactive: 60%
O=C(Nc1c(C(=O)c2ccc(F)cc2)oc2ccccc12)c1cc(-c2ccccc2)on1 | inactive: 77%
Cc1ccc(CNCc2c(C(=O)O)c(C)n(Cc3ccc(C)cc3)c2C)cc1 | inactive: 85%
CCN(CC)S(=O)(=O)c1nnc(NC(=O)COc2cccc(C)c2)s1 | inactive: 94%
Cc1c(C(=O)NCc2ccccc2Cl)cccc1-n1cnc2cccnc21 | inactive: 78%
Cc1cccc(CNC(=O)c2ccc3nc(-c4ccccc4)c(-c4ccccc4)nc3c2)c1 | inactive: 75%
Cc1cccc(NC(=O)Cn2c(=O)n(CCc3ccccc3)c(=O)c3sc4ccccc4c32)c1 | inactive: 105%
CCC12CN3CC(C)(CN(C1)C3c1c(C)n(C)c3ccccc13)C2=O (stereo not drawn) | inactive: 79%
CC(C)CC(=O)Nc1ccc(S(=O)(=O)NCc2ccco2)cc1 | inactive: 111%
CCS(=O)(=O)N1CCNCC1 | inactive: 80%
O=C(Cn1c(=O)n(-c2ccccc2)c(=O)c2c3c(sc21)CCCC3)Nc1cccc(F)c1 | inactive: 94%
CN(C)c1ccc(CNC(=O)c2ccc(NC(=O)c3nsc4ccccc34)cc2)cc1 | inactive: 84%
COc1cccc(Cc2nc3ccccc3nc2SCC(=O)Nc2ccccc2F)c1 | inactive: 67%
COc1cc2c(cc1OC)C(C)N(C(C)=O)CC2 (stereo not drawn) | inactive: 75%
COc1ccc(CCN2C(=O)c3[nH]nc(-c4ccccc4O)c3C2c2ccc(O)c(OC)c2)cc1 (stereo not drawn) | active: 30%
COc1ccc(-c2c(C)nn3c(-c4ccccc4)cc(-c4ccccc4)nc23)cc1OC | inactive: 96%
CCOC(=O)CC(NC(=O)c1cc2c(=O)n3cccc(C)c3nc2s1)c1ccc(OCC(C)C)c(OC)c1 (stereo not drawn) | inactive: 64%

Structure (SMILES) | survival
O=C(NC1CCCCC1)c1cc(Nc2ccccc2)nc2ccccc12 | inactive: 60%
COC(=O)c1ccc(NC(=O)CCNS(=O)(=O)c2cccc3nsnc23)cc1 | inactive: 65%
CCC(CC)C(=O)Nc1nnc2n1CCS2 | inactive: 113%
O=C(CSc1nc2c([nH]c3ccccc32)c(=O)n1-c1ccc(F)cc1)N1CCCc2ccccc21 | inactive: 78%
O=C1CC2C(=O)NCCN2C(=NC(=O)c2ccc(Cl)cc2)N1 (stereo not drawn) | inactive: 99%
O=C(Nc1c[nH]c(=O)[nH]c1=O)c1cccc(C(=O)Nc2c[nH]c(=O)[nH]c2=O)c1 | inactive: 78%
CCOC(=O)Cn1c(=O)n(C2CCCCC2)c2nc(-c3ccccc3Cl)nc(C(N)=O)c21 | inactive: 84%
Cc1cccc(C)c1OCc1nc2c3cnn(-c4ccccc4Br)c3ncn2n1 | inactive: 69%
Nc1c(-c2nc(-c3ccc(Cl)cc3)no2)nnn1-c1ccc(C(F)(F)F)c(Cl)c1 | inactive: 75%
COc1cc(NC(=O)c2cc(C3CC3)nc3c2c(C)nn3-c2ccc(C)cc2)cc(OC)c1 | inactive: 92%
CCOCCCn1c(SCC(=O)NCCCOC)nc2c(sc3ccccc32)c1=O | inactive: 126%
Cc1ccccc1Nc1cc(C(=O)NC2CCCCC2)c2ccccc2n1 | inactive: 125%
CCOCCCNC(=O)c1c[nH]c2ccc(S(=O)(=O)Nc3cccc(Cl)c3C)cc2c1=O | inactive: 93%
Cn1c(=O)oc2cc(S(=O)(=O)N3CCCC(C(=O)N4CCN(c5ccccc5F)CC4)C3)ccc21 (stereo not drawn) | inactive: 94%
CCOC(=O)N1CCc2c(sc3c2c(=O)n(-c2ccc(Cl)cc2)c(=O)n3Cc2cccc(C)c2)C1 | inactive: 74%
Cc1cc2c(cc1S(=O)(=O)N(C)CC(=O)Nc1cccc(C#N)c1)OCC(=O)N2 | active: -2%
Nc1sccc1C(=O)c1ccccc1 | inactive: 96%
CCOC(=O)c1cccc(NC(=O)CCn2nc(C)c3c(C)n(-c4ccccc4)nc3c2=O)c1 | inactive: 69%
COCCCNC(=O)C1CCCN(S(=O)(=O)c2ccc3c(c2)oc(=O)n3C)C1 (stereo not drawn) | inactive: 102%
COc1ccccc1C(=O)NCC1(N2CCN(C)CC2)CCCCC1 | inactive: 69%

Structure (SMILES) | survival
Cc1ccc(C)c(NC(=O)N2CCC(N3CCN(Cc4ccc(F)cc4)C(=O)C3=O)CC2)c1 | inactive: 99%
COc1ccccc1CNC(=O)c1ccc(CN2CC(=O)N3CCCCC3C2=O)cc1 (stereo not drawn) | inactive: 81%
CCN(CC)c1ccc(NC(=O)CN2CCN(CC(=O)Nc3ccccc3OC)CC2)cc1 | inactive: 124%
CN(C)CCCNc1nc(-c2ccc(Cl)cc2)cs1 | inactive: 132%
Cc1ccc2occ(CC(=O)N(Cc3ccc(N(C)C)cc3)C3CCS(=O)(=O)C3)c2c1 (stereo not drawn) | inactive: 74%
CN(c1ccccc1)C(c1ccc(F)cc1)c1nnnn1CC1CCCO1 (stereo not drawn) | inactive: 86%
CCOc1ccc(CNC(=O)CCC(=O)N2CCSc3ccccc32)cc1 | inactive: 50%
O=C(c1ccccc1)N1CCN(c2ccc(F)cc2)CC1 | inactive: 78%
COc1ccccc1N1CCN(S(=O)(=O)c2cc3[nH]c(=O)c(=O)[nH]c3cc2C)CC1 | inactive: 79%
Cc1ccc(C)c(NC(=O)C(Cc2ccccc2)N2Cc3ccccc3C2=O)c1 (stereo not drawn) | inactive: 118%
Cc1ccc(CCNc2ncnc3onc(C)c23)cc1 | inactive: 105%
COc1cccc(-c2nc3c(C#N)c[nH]n3c2NC2CCCCC2)c1OC | inactive: 60%
CC(C)N1CCN(S(=O)(=O)c2ccc(Cl)cc2)CC1 | inactive: 90%
COc1ccc(Br)cc1Cc1nc(C)cc(Cl)n1 | inactive: 71%
CC(NC(=O)c1sc2ncccc2c1-n1cccc1)c1ccccc1 (stereo not drawn) | inactive: 95%
COc1cc(OC)c2c(C)cc(=O)oc2c1 | inactive: 112%
COc1ccc(NC(=O)N2CCc3c([nH]c4ccc(OC)cc34)C2c2ccc(OC)cc2)cc1 (stereo not drawn) | inactive: 86%
COc1ccc2nc(N3CCN(C(=O)C4CC4)CC3)sc2c1 | inactive: 97%
